Measurements from PubChem BioAssay AID1460 (National Center for Advancing Translational Sciences (NCATS), 2008).
Among all 270,000 compounds or so, about 5,800 (2.1%) were called active. Inconclusive means that the source gave no clear call. Such entries were picked first, then a sample of the others. The call rests on the fitted dose curve; in most records, active means well fitted inhibition curve with a large enough effect; inconclusive means small, poorly fitted or top-dose-only effect; inactive means flat fitted curve, though single readings scatter. A potency beside an inconclusive call is a rough fit, not a confirmed value.

Biological target: Microtubule-associated protein tau (Homo sapiens) (UniProt P10636)
Test: qHTS for Inhibitors of Tau Fibril Formation, Thioflavin T Binding; further: nearly all actives have a fitted effect of over 55% in size
Conditions: recombinant tau K18 P301L (four-repeat tau fragment), heparin-induced fibrillization, ThT fluorescence; series mostly up to 57.4 µM
How it was run: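 Heparin-induced fibrillization of the P301L-mutant K18 repeat-domain fragment of human tau was followed by ThT binding in quantitative high-throughput format.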
Potency means the concentration at half of the fitted maximal effect; tags describe the fitted curve by direction and shape.

Chain of UniProt P10636 (P10636 whole entry, looked up): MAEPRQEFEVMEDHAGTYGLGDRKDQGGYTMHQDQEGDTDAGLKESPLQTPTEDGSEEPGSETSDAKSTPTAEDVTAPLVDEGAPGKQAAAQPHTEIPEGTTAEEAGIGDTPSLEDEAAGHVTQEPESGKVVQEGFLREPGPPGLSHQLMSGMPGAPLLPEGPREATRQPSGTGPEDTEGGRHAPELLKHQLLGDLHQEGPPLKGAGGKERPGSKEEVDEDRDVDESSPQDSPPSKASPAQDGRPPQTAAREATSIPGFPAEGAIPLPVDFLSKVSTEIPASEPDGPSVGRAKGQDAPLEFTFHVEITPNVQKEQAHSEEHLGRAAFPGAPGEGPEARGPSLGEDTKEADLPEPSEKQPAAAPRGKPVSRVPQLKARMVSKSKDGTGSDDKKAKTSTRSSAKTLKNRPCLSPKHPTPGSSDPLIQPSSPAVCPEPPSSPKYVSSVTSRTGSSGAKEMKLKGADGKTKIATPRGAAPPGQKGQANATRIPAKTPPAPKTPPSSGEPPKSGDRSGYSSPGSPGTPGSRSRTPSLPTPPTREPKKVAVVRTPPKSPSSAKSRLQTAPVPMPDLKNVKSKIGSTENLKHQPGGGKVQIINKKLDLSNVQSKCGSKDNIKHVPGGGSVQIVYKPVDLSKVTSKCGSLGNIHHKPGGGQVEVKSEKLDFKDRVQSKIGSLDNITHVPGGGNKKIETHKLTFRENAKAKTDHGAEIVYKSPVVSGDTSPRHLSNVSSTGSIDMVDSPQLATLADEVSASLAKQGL

SMILES	Potency
O=[N+]([O-])c1cccc(N/N=C/c2cc([N+](=O)[O-])ccc2O)c1	inconclusive: 2 µM [inhibitor, full curve]
O=C(c1ccc2ccccc2c1)N1CCN(c2ccc(C(F)(F)F)cn2)CC1	inactive
CCc1nn(CC(=O)NCCc2ccc(OC)cc2OC)c(=O)c2cc3c(OC)cccc3n12	inconclusive: 12.6 µM [inhibitor, partial curve, poor fit]
Cc1ccc(CCNC(=O)CS(=O)Cc2nc(-c3cccc(C)c3)oc2C)cc1 (centres undefined)	inconclusive: 15.8 µM [inhibitor, partial curve]
CCOC(=O)c1ccc(N2C(=O)CC(Nc3ccc(CCO)cc3)C2=O)cc1 (centres undefined)	inactive
CCOC(=O)c1cc2c(ccn2C)n1Cc1ccccc1C	inconclusive: 17.8 µM [inhibitor, partial curve]
COc1ccc(Nc2nc(-c3ccc(C)cc3)nc3ccccc23)c(OC)c1	inconclusive: 10 µM [inhibitor, partial curve]
COc1cc(C2N(c3ccc(Cl)c(Cl)c3)C(=O)C3CCCN32)cc(OC)c1OC (centres undefined)	inactive
CCN1CCN(c2nc3c(S(=O)(=O)c4ccc(Br)cc4)nnn3c3ccsc23)CC1	inactive
O=C(CSc1nnc(CNC(=O)c2cccc(F)c2)n1-c1ccccc1)Nc1ccccc1F	inactive
CCc1ccc(-c2csc3[n+]2CCN3C(C)=O)cc1	active: 25.1 µM
CCOc1cc(CNc2ccc(O)cc2)ccc1OCc1ccc(Cl)cc1Cl	active: 12.6 µM
COc1cc(NC(=O)CN(c2ccc(C)cc2)S(=O)(=O)c2cccc3nonc23)cc(OC)c1	inactive
O=C(Nc1ccc2oc(-c3ccccc3F)nc2c1)c1cncc(Br)c1	inconclusive: 0.708 µM [inhibitor, full curve]
COCCn1c(SCC(=O)c2ccc3c(c2)OCCO3)nnc1-c1ccoc1C	inconclusive: 28.2 µM [inhibitor, partial curve, poor fit]
CCOc1cc(C(=O)Nc2ccc(N3CCOCC3)cc2)cc(Br)c1OC	inconclusive: 14.1 µM [inhibitor, partial curve]
COc1ccccc1N1CCN(CCCCN2C(=O)c3ccccc3C2=O)CC1	inactive
O=C(Cn1cc(S(=O)(=O)Cc2ccccc2)c2ccccc21)Nc1ccccc1	inactive
COc1ccc(NC(=O)Cn2c(SCc3cc(C)ccc3C)nc3ccncc32)c(OC)c1OC	inconclusive: 12.6 µM [inhibitor, partial curve, poor fit]
CCOC(=O)C(Sc1nnc(-c2ccncc2)o1)C(C)=O (centres undefined)	inconclusive: 22.4 µM [inhibitor, partial curve]
O=C(CSc1ccc(-c2ccccc2)nn1)c1cccs1	inconclusive: 22.4 µM [inhibitor, partial curve, poor fit]
Clc1ccc(-c2csc(N/N=C/c3ccco3)n2)cc1	active: 14.1 µM

SMILES	Potency
Cc1ccc2nc(N3CCN(c4cccc(Cl)c4)CC3)c(-n3nc(C)cc3C)nc2c1	inconclusive: 39.8 µM [inhibitor, single point]
Cc1cccc(Oc2nc3c(C)cccn3c(=O)c2/C=C(\C#N)c2nc3ccccc3[nH]2)c1	inconclusive: 35.5 µM [inhibitor, single point]
O=C(CCCN1C(=O)CSc2ncccc21)N1CCN(c2cccc(C(F)(F)F)c2)CC1	inconclusive: 17.8 µM [inhibitor, partial curve]
CCCCCCn1c(C(C)NC(=O)c2ccco2)nc2ccccc21 (centres undefined)	inconclusive: 39.8 µM [inhibitor, partial curve]
Cc1ccccc1NCC(=O)N=Nc1c(O)[nH]c2ccc([N+](=O)[O-])cc12	inconclusive: 14.1 µM [inhibitor, partial curve]
COc1cc(-c2cc(OC)c3c(C)oc(C)c3c(=O)c2)ccc1OC(=O)c1ccccc1Cl	inconclusive: 8.91 µM [inhibitor, single point]
Cc1ccccc1CN(c1ccc(C(=O)N/N=C/c2ccc(OCC(N)=O)cc2)cc1)S(C)(=O)=O	inconclusive: 6.31 µM [activator, full curve, poor fit]
COc1ccc2c(c1)Cc1sc(NC(=O)c3cccs3)nc1-2	active: 12.6 µM
Cc1cccc(-c2nc(CSCC(=O)N3CCN(Cc4ccc5c(c4)OCO5)CC3)c(C)o2)c1	inconclusive: 25.1 µM [inhibitor, partial curve]
Cc1ccc(C)c(N2CCN(C(=O)C3CCCN(S(=O)(=O)c4ccc5c(c4)oc(=O)n5C)C3)CC2)c1 (centres undefined)	inactive
O=C(COc1ccc(Cl)cc1)Nc1ccc(-c2nc3ccccc3s2)c(O)c1	inconclusive: 0.398 µM [inhibitor, full curve]
CCc1ccc(C(=O)c2cn(CC(=O)Nc3ccc4c(c3)OCO4)c3cc(OC)c(OC)cc3c2=O)cc1	inconclusive: 3.55 µM [inhibitor, full curve]
O=C(NCCc1ccccc1Cl)c1ccc(Cn2c(=O)c3cccn3c3cccnc32)cc1	inconclusive: 39.8 µM [activator, single point]
O=C1CC(c2cc(Br)ccc2F)c2cc3c(cc2N1)CCC3 (centres undefined)	inactive
COc1ccc(-c2nc(C)c(CCNC(=O)C(=O)Nc3ccccc3OC)s2)cc1	inconclusive: 2 µM [inhibitor, full curve]
O=S(=O)(c1ccc(NC(=S)NCc2ccncc2)cc1)N1CCCCC1	inactive
COc1ccc(OCCn2cc(/C(N)=N/O)c3ccccc32)cc1	inconclusive: 1.12 µM [inhibitor, full curve, poor fit]
O=[N+]([O-])c1ccccc1/C=C\C=N\N1CCN(c2ccccc2)CC1	active: 12.6 µM
FC(F)(F)c1cccc(N/N=C/c2ccccc2)c1	inconclusive: 35.5 µM [inhibitor, single point]
CO/N=C(/CNC(=O)c1ccc(F)cc1)c1ccc(Cl)cc1	inactive
CC(=O)c1cc(NC(=O)c2ccc(Cl)cc2)c(=O)oc1/C=C/N(C)C	active: 10 µM
CCc1nc2ccccc2n1CCCCOc1ccc(C)cc1	inconclusive: 11.2 µM [inhibitor, partial curve, poor fit]
